The list shows a part of the results. Shown are side measurements of this screen, not its main read-out; they come without a call. Square brackets hold non-standard residues; d marks the D form. Peptide text beside a SMILES is read from it. ξ: configuration not given here. ξPhe(βξ-Me) = CC(c1ccccc1)C(N)C(=O)O; GABA = NCCCC(=O)O
Legend:
Test in all cases: Primary Screen for Target Class Profiling of Small Molecule Inhibitors of Methyltransferases
[1] = molecular target: Glycine N-methyltransferase (Homo sapiens) (UniProt Q14749); details: purified enzyme, MTase-Glo SAH luminescence; measured here: GNMT inhibition; at 40 µM; stronger effect = lower value
How it was run: (§1)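 Each enzyme was reacted with SAM and its substrate, with compounds tested once at 40 uM; SAH formed was read by MTase-Glo luminescence.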

[2] = molecular target: Histamine N-methyltransferase (Homo sapiens) (UniProt P50135); details: purified enzyme, MTase-Glo SAH luminescence; measured here: HNMT inhibition; at 40 µM; stronger effect = lower value
How it was run: as §1

[3] = molecular target: Guanidinoacetate N-methyltransferase (Homo sapiens) (UniProt Q14353); details: purified enzyme, MTase-Glo SAH luminescence; measured here: GAMT inhibition; at 40 µM; stronger effect = lower value
How it was run: as §1

[4] = molecular target: Nicotinamide N-methyltransferase (Homo sapiens) (UniProt P40261); details: purified enzyme, MTase-Glo SAH luminescence; measured here: NNMT inhibition; at 40 µM; stronger effect = lower value
How it was run: as §1

[5] = molecular target: Phenylethanolamine N-methyltransferase (Homo sapiens) (UniProt P11086); details: purified enzyme, MTase-Glo SAH luminescence; measured here: PNMT inhibition; at 40 µM; stronger effect = lower value
How it was run: as §1
% is scaled to controls: 0 for no effect and ±100 for the full control effect.

Compound | activity change, negative = inhibition [1] | activity change, negative = inhibition [2] | activity change, negative = inhibition [3] | activity change, negative = inhibition [4] | activity change, negative = inhibition [5]
C[C@@H]1C(=O)O[C@H]2[C@@H](O)C34[C@H]5C[C@@H](C(C)(C)C)C36[C@@H](OC(=O)[C@@H]6O)O[C@@]4(C(=O)O5)[C@@]12O (stereo partly specified) | -5.17% | -1.53% |  |  | 
COc1c(O[C@@H]2O[C@H](CO)[C@@H](O)[C@H](O)[C@H]2O)c(CCC(=O)O)cc2ccoc12 | 24% | 20.2% | 41% | 25.9% | 8%
CN1C(=O)c2cc(C(=O)NCCc3ccc(Cl)cc3)nn2CC1(C)C(=O)NC1CCCCC1 (stereo unspecified) | 5.14% | 5.4% | 0% | 8.69% | 5.11%
CC(C)C1(O)C=C2C(=O)CC3C(C)(C(=O)O)CCCC3(C)C2CC1 (stereo unspecified) | 0.179% | 11.9% | -0.72% | -12.3% | -9.29%
CC(C)NC(=O)c1ccc2c(=O)n(C(C)C)c3n[nH]c(=O)n3c2c1 | -1.66% | 2.62% | 3.27% | 10.5% | -3.61%
C=CCN(C(=O)Cn1c(=O)oc2cc(S(=O)(=O)N3CCCC3)ccc21)c1ccccc1 | -1.41% | -3.23% | 7.45% | 4.05% | -6.32%
C#C[C@]1(OC(C)=O)CC[C@H]2[C@@H]3CCC4=C[C@@H](OC(C)=O)CC[C@@H]4[C@H]3CC[C@@]21C | -5.53% | 8.84% | -18.7% | -18.9% | -0.556%
CC(C)[C@H](C(=O)Nc1ccc(C(=O)NO)cc1)c1ccccc1 | -3.91% | 9.02% |  | -23.5% | -13.5%
Cc1ccc(CNC(=O)CCc2nnc3n(CCCOC(C)C)c(=O)c4ccccc4n23)cc1 | -7.58% | -2.72% | -3.69% | 0.064% | -8.9%
CN1C(=O)c2cc(C(=O)NC3CCCC3)nn2CC1(C)C(=O)NC1CCCCCC1 (stereo unspecified) | 6.07% | 5.96% | 0% | 11.1% | 3.41%
CC1(C)C[C@H]2C=C(C=O)[C@]3(C(=O)O)C[C@]3(C)[C@H]2C1 | -8.82% | -1.54% | -9.45% | -21% | -17.9%
CC(C)CS(=O)(=O)N[C@H](C)c1onc(-c2ccc(F)cc2)c1C(=O)O | -0.477% | 1.41% | -2.11% | -1.73% | 0.554%
CC(C)CCn1c(=O)c2ccc(C(=O)NCC(C)C)cc2n2c(=O)n(CC(=O)Nc3ccccc3)nc12 | 1.22% | 7.66% | 0% | -3.6% | 2.93%
CC(C)CCNC(=O)C1(C)Cn2c(ccc2-c2ccco2)C(=O)N1Cc1ccccc1 (stereo unspecified) | -8.55% | -4.15% | 0.999% | -8.05% | -5.8%
Oc1cc(-c2nc(-c3ccccc3)[nH]c2-c2ccncc2)ccc1Cl | -24.1% | -17.1% | -8.31% | -42.7% | -17.2%
CC(C)Cn1c(=O)c2ccccc2n2c(CCC(=O)NC(C)c3ccccc3)nnc12 (stereo unspecified) | 2.38% | 8.58% | 1.41% | 7.18% | 2.03%
COc1ccc(-c2nnc3n(Cc4ccc(C)cc4)c(=O)c4ccccc4n23)c(O)c1 | -18% | -0.11% | -2.42% | -8.89% | -11.5%
COc1cccc(C2c3cccn3-c3sc4c(c3CN2C(=O)Nc2ccccc2C)CCCC4)c1 (stereo unspecified) | 1.38% | 1.4% | 0.598% | -1.81% | 5.97%
COc1ccc([C@H]2C[C@@H](O)[C@@H](O)[C@@H]2NC(=O)C(C)C)cc1 | 0.251% | 3.22% | 0.738% | -4.67% | -0.037%
CCc1cc(CC[C@]2(C3CCCC3)CC(O)=C(Cc3nc4nc(C)cc(C)n4n3)C(=O)O2)cc(CC)n1 | 7.17% | 7.55% | -0.627% | -20.7% | -2.88%

Compound | activity change, negative = inhibition [1] | activity change, negative = inhibition [2] | activity change, negative = inhibition [3] | activity change, negative = inhibition [4] | activity change, negative = inhibition [5]
Cc1ccc(-n2cc(CN3CCN4CCCC4C3)c(-c3cccc(C)c3)n2)cc1 (stereo unspecified) | -9.1% | -22.8% | -7.22% | -5.89% | 7.94%
COc1ccc(CCN2C(=O)c3cc4occc4n3CC2(C)C(=O)NC2CCC(C)CC2)c(OC)c1 (stereo unspecified) | -11.6% | -6.48% | 4.2% | -13.2% | -5.64%
Nc1[nH]nc2nc3ccccc3nc12 |  |  | 3.33% | -17% | -4.85%
COc1ccc(CCNc2ncnc3c2CN(c2ccc(C)cc2)C(=O)CN3C)cc1 | -28.4% | -3.81% | -6.14% | -29.6% | -11.8%
O=c1[nH]c2cccc(N3CCN(Cc4ccc(-c5ccccc5)cc4)CC3)c2o1 | -2.12% | 6.56% | -6.91% | -32.9% | -10.6%
CN(C)C(CCOc1cccc2ccccc12)c1ccccc1 (stereo unspecified) | 0.195% | -18% |  |  | 
CC(C)CNC(=O)CN1CCOc2c(O)cc(-c3cccc(Cl)c3)cc2C1 | -12.1% | -16.6% | -5.65% | -19% | -1.04%
C=C1C(=O)O[C@@H]2C3=C(C)CCC[C@]3(C)CC[C@@]12O | 4.09% | 13% | 6.01% | -9.78% | 6.44%
CC(C)Cn1c(=O)c2ccccc2n2c(SCC(=O)Nc3ccc(C(C)C)cc3)nnc12 | -0.88% | 9.81% | 2.21% | -6.52% | 1.95%
CN1c2c(nc(N)[nH]c2=O)NC[C@@H]1CNc1ccc(C(=O)N[C@@H](CCC(=O)O)C(=O)O)cc1 | -4.35% | 8.58% | -16.8% | -16.3% | -1.84%
COc1cc(O)cc2c1C(=O)OC(C)C2 (stereo unspecified) | -0.542% | -1.18% | -18.9% | -30.3% | -2.41%
COc1cc2c(CCNC(C)=O)c[nH]c2cc1O | -63.7% | -4.95% | 2.85% | -11.1% | 2.5%
C[C@@H]1CC[C@]2(C)C(C[C@@H](O)[C@H](O)[C@]23CO3)[C@@]1(C)CCc1ccoc1 (stereo partly specified) | -1.24% | 8.95% | 5.7% | -9.12% | 0.023%
CCN1CC(C(=O)N(C)Cc2ccc(Oc3ccccc3)cc2)CCC1=O (stereo unspecified) | 0.653% | 1.03% | 1.42% | -1.76% | -1.55%
O=C(c1cccnc1)N1CCn2cc(C(=O)N3CCOCC3)nc2C1 | -0.314% | 1.92% | -0.933% | 0.241% | 0.977%
CCOc1cn(-c2ccc(F)cc2C)nc1C(=O)Nc1ccc(Oc2ccnc3cc(OC)c(OC)cc23)c(F)c1 | -0.281% | 7.41% | -16.9% | -40.7% | -5.73%
CCC(C)NC(=O)c1ccc2c(=O)n(CCC(C)C)c3nn(CC(=O)c4ccc(C)cc4)c(=O)n3c2c1 (stereo unspecified) | 0.32% | 7.15% | 6.42% | -4.28% | 0.632%
CC(C)CC1NC(=O)C(C(C)c2ccccc2)NC(=O)C(C(C)C)NC(=O)C(C)NC(=O)CCCNC(=O)C(Cc2c[nH]c3ccccc23)NC(=O)C(C)NC1=O (stereo not drawn) (cyclo([GABA]AV[ξPhe(βξ-Me)]LAW); configuration not given here) | 0% | -1.81% | 1.38% | -13.4% | 2.25%
Fc1ccc(N2CCN(CCC3OCCc4ccccc43)CC2)cc1 (stereo unspecified) | 2.66% | -26.5% | -2.14% | -14.6% | -9.22%
Cc1cc2c(cc1C1(c3ccc(C(=O)O)cn3)CC1)C(C)(C)CCC2(C)C | 3.54% | 10.1% | -2.23% | -24.9% | 4.85%

Compound | activity change, negative = inhibition [1] | activity change, negative = inhibition [2] | activity change, negative = inhibition [3] | activity change, negative = inhibition [4] | activity change, negative = inhibition [5]
CC(C(=O)N1CCOCC1)n1ccc2cc(S(=O)(=O)N3CCCC3)ccc21 (stereo unspecified) | 5.19% | 3.82% | 1.15% | 4.66% | 2.85%
CCC(C)NC(=O)c1ccc2c(=O)n(C)c3nnc(SCC(=O)Nc4ccccc4C)n3c2c1 (stereo unspecified) | 1.43% | -1.47% | 0% | -0.93% | 2.92%
CCOCCCN1C(=O)c2ccc(-c3ccccc3)n2CC1(C)C(=O)NC1CCCCCC1 (stereo unspecified) | 4.53% | 0.025% | 0% | 1.88% | 0.494%
COc1ccc(CCNC(=O)c2cc3n(n2)CC(C)(C(=O)NCc2ccc(C)cc2)N(C)C3=O)cc1OC (stereo unspecified) | -3.31% | -8.9% | 3.37% | 5.66% | 1.41%
CC1(C)CC[C@]2(C(=O)O)CC[C@]3(C)C(=CCC4[C@@]5(C)C[C@@H](O)[C@H](O)[C@@](C)(CO)C5CC[C@]43C)[C@@H]2[C@@H]1O (stereo partly specified) | 2.55% | 9.48% | 7.37% | -4.25% | 7.49%
CC1CCC(NC(=O)C2(C)Cn3c(ccc3-c3ccco3)C(=O)N2CCCN2CCCCC2)CC1 (stereo unspecified) | -3.12% | -4.1% | 2.27% | -1.69% | -0.452%
Cc1cccc(Cn2nc3n(C)c(=O)c4ccc(C(=O)NCC(C)C)cc4n3c2=O)c1 | -0.59% | 10% | 0% | -5.09% | 4.03%
COc1cccc(CNc2nc3c(S(=O)(=O)c4ccc(Cl)cc4)nnn3c3ccccc23)c1 | 1.44% | 6.69% | 0% | 1.95% | 1.67%
COc1ccc(CCNC(=O)c2c(-c3ccccc3)cc(=O)n3c2CCC3)cc1OC | -7.73% | -4.34% | -9.54% | -10.7% | -0.609%
O=C(N[C@@H]1COCC[C@@H]1OCC1CC1)c1ccc2c(c1)CCCO2 | -1.37% | -0.058% | 1.45% | -1.64% | -0.871%
Cc1cc(OC2CN(Cc3ccnn3C)C2)ccc1F | -6.22% | -1.86% | -4.93% | -6.14% | -6.85%
COc1cccc(Cn2nc3n(C)c(=O)c4ccc(C(=O)NC5CCCCC5)cc4n3c2=O)c1 | -1.86% | 1.11% | 1.66% | -2.37% | 0.357%
CCCN1C(=O)c2c(C(=O)NCc3cccc(F)c3)ncn2CC1(C)C(=O)NC1CCCC1 (stereo unspecified) | 2.38% | 9.06% | 2.44% | 8.09% | 10.1%
CC(C)(C)c1cc2n(n1)CC(C)(C(=O)NC1CCCCC1)N(CCCc1ccccc1)C2=O (stereo unspecified) | -1.41% | 5.07% | 3% | -1.23% | 0.823%
COCC(=O)N1CCCCC1c1nc(-c2ccccc2)n[nH]1 (stereo unspecified) | -2.11% | -0.843% | 0.37% | -2.24% | -5.82%
CSCCC(=O)N1CCc2c(ncnc2N2CCOCC2)C1 | -2.64% | 1.76% | -2.92% | -1.8% | 0.226%
CNC(=O)c1cc(C2CC2)nc2c1c(C1CCN([S+](=O)([O-])c3c(C)noc3C)CC1)nn2C | -2.23% | -0.155% | -0.966% | -9.4% | 7.52%
COc1cc(/C=C/C(=O)O[C@H]2[C@H](O)[C@@H](CO)O[C@@]2(CO)O[C@H]2O[C@H](CO)[C@@H](O)[C@H](O)[C@H]2O)cc(OC)c1O | 3.37% | 4.36% | 7.4% | -5.66% | 3.8%

Source: PubChem BioAssay AID1745853 (National Center for Advancing Translational Sciences (NCATS), 2022)
